Assay results reported in paper PMC7819943, “Rice protein-binding microarrays: a tool to detect cis-acting elements near promoter regions in rice”.
This is one part of the list.

The sequences below were run against T1, OsWOX13 (Oryza sativa, UniProt Q5QMM3 1-267) (assay: protein-binding microarray (RPBM); PBS, 2% BSA, 51.3 ng/ul salmon testes DNA, 50 uM zinc acetate, 200 nM TF, 25 C, 1 h; high values mean tight binding). Settings: protein: recombinant; tags: N-terminal polyhistidine and DsRed monomer fusion (pET32a); label: CyDye5-dUTP incorporated in the synthesized complementary strand; 3' TTTTT single-stranded linker to array surface; dsDNA, one strand shown.
T1 sequence: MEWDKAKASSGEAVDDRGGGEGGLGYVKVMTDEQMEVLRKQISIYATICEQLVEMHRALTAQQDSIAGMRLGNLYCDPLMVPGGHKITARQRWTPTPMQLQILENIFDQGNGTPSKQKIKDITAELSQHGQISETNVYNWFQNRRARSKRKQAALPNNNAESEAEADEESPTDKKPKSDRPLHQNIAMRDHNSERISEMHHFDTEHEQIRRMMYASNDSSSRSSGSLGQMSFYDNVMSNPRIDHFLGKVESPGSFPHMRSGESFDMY
Procedure, shortened: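 Transcription factors were made in E. coli BL21-CodonPlus as N-terminal fusions to a polyhistidine tag and DsRed, then purified on Ni–NTA. After primer extension with Cy5-dUTP and blocking with 2% BSA, a custom Agilent array was exposed for 1 h at 25 °C to 200 nM protein in PBS, 2% BSA, salmon testes DNA and 50 µM zinc acetate. Washed arrays were scanned on an Axon 4000B, and the binding signal is per-feature fluorescence intensity in arbitrary units.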

Q: For “ATATGATTTTAGACGTTCGAGTTTCAAAAGGGCCAGGCCTCGGAGTCACCTAGTGCAG”, which binding signal is on record?
A: 9920 fluorescence intensity (a.u.)

Q: With “AGGTTAGATTTGATCAAACCAAAAGAAATTTGATTAGAAACGGAGTCACCTAGTGCAG” as the sequence, how does the binding signal read?
A: 4590 fluorescence intensity (a.u.)

Q: Which binding signal does the source give for “ACAGTAAGAAACATCAATTAAGGTGGTTAGGAATTAATCACGGAGTCACCTAGTGCAG” here?
A: 7840 fluorescence intensity (a.u.)

Q: “ATTCAATTATATAGTACAGTTACACTAAGTTACTATGCACCGGAGTCACCTAGTGCAG” was tested. Which binding signal did it give?
A: 13500 fluorescence intensity (a.u.)

Q: With “TGTTTTAAAGATTTAATTGGAACGGATTTAATGGTGTCATCGGAGTCACCTAGTGCAG” as the sequence, how does the binding signal read?
A: 19900 fluorescence intensity (a.u.)

Q: “TTTGATTAGTCAGAAATTTTCTTGTCTTAGACTAGCAAGACGGAGTCACCTAGTGCAG” was tested. Which binding signal did it give?
A: 24900 fluorescence intensity (a.u.)

Q: For “ATGTATAGTTTGACAAATTAATGGTAAACGTGTGCATTAGCGGAGTCACCTAGTGCAG”, which binding signal is on record?
A: 3340 fluorescence intensity (a.u.)

Q: With “TAAAATTGTGAAAATGTCATTTCCTATAAATTTGATAACCCGGAGTCACCTAGTGCAG” as the sequence, how does the binding signal read?
A: 8130 fluorescence intensity (a.u.)

Q: How did the binding signal turn out when “AGATTAGATTTAGATTAGTCCTATGTGTCTCTTGCCGGGTCGGAGTCACCTAGTGCAG” was run?
A: 19100 fluorescence intensity (a.u.)

Q: “CTTTAAACAGTTTGAGTGAATTTAGGGGTACATATTTCTGCGGAGTCACCTAGTGCAG” was tested. Which binding signal did it give?
A: 6070 fluorescence intensity (a.u.)

Q: For “ACCTTAAATTTGTAGTTGATTTTAGGGTTTTCTCATTGAACGGAGTCACCTAGTGCAG”, which binding signal is on record?
A: 27700 fluorescence intensity (a.u.)

Q: With “AGTTTCATTAAATCTATAATTGAATAAGTTTTCATAATATCGGAGTCACCTAGTGCAG” as the sequence, how does the binding signal read?
A: 4690 fluorescence intensity (a.u.)

Q: “CAATCCATTTTAGATTGATTCCGTGTAGATCGATGGAGTTCGGAGTCACCTAGTGCAG” was tested. Which binding signal did it give?
A: 25000 fluorescence intensity (a.u.)

Q: How did the binding signal turn out when “CCTAATCAAGACCATCATGATGGTGTCGACAACATGGTCCCGGAGTCACCTAGTGCAG” was run?
A: 6960 fluorescence intensity (a.u.)

Q: “TTAAAGTCATAATTGCTATAAATTGAGGTTGCTCCACCCTCGGAGTCACCTAGTGCAG” was tested. Which binding signal did it give?
A: 31700 fluorescence intensity (a.u.)

Q: Which binding signal does the source give for “TTTTATAGCTAATCTATTATATATCTATAATGTTAGCTTCCGGAGTCACCTAGTGCAG” here?
A: 3200 fluorescence intensity (a.u.)

Q: Which binding signal does the source give for “CTTGATTAGTAGTTGGTTGCTCTTCTTCTTGTTCTTGGTTCGGAGTCACCTAGTGCAG” here?
A: 64200 fluorescence intensity (a.u.)

Q: “TCACACTTCTTGTTTGATCAATCACAGAGACAGAGAGAGACGGAGTCACCTAGTGCAG” was tested. Which binding signal did it give?
A: 3980 fluorescence intensity (a.u.)

Q: Which binding signal does the source give for “GAGCCCGAACTAATTTTAACAGAACGCGTTACGGATTGAACGGAGTCACCTAGTGCAG” here?
A: 3190 fluorescence intensity (a.u.)

Q: “ATATAATTTCTTACTTTCTCAGATGTGTCCTTATTCATGTCGGAGTCACCTAGTGCAG” was tested. Which binding signal did it give?
A: 12200 fluorescence intensity (a.u.)

Q: How did the binding signal turn out when “GTCAATTATCCCATTGCTTAATGTACTTATCATGGTAAGTCGGAGTCACCTAGTGCAG” was run?
A: 6080 fluorescence intensity (a.u.)

Q: Which binding signal does the source give for “TTCGCTAATTATTTGCGGGGCTTCACATGGCAGGGCCGGACGGAGTCACCTAGTGCAG” here?
A: 29400 fluorescence intensity (a.u.)

Q: With “GCAGCCTATAAATGTGGTTAGATTGGAATATGGTTTGCAACGGAGTCACCTAGTGCAG” as the sequence, how does the binding signal read?
A: 11200 fluorescence intensity (a.u.)

Q: For “TGGCCGGTGATTTACCGTACTAGTGATGTATGCGTGCAAACGGAGTCACCTAGTGCAG”, which binding signal is on record?
A: 3650 fluorescence intensity (a.u.)

Q: How did the binding signal turn out when “GGAGCAGACTTGATTTCTGATTTTGCTCGGCACCGTGAATCGGAGTCACCTAGTGCAG” was run?
A: 4430 fluorescence intensity (a.u.)

Q: “CCTTTTAATTATTTGATATTACGTTCTTCTCTAATATTCGCGGAGTCACCTAGTGCAG” was tested. Which binding signal did it give?
A: 21600 fluorescence intensity (a.u.)

Q: How did the binding signal turn out when “AAATTACTAATTTACCTATAATTAGTTGGACTCTAGCTCTCGGAGTCACCTAGTGCAG” was run?
A: 37600 fluorescence intensity (a.u.)

Q: Which binding signal does the source give for “CAACACTTCAATCAGGGGAGAAGGAGGCGGCGACAACAAACGGAGTCACCTAGTGCAG” here?
A: 5000 fluorescence intensity (a.u.)

Q: Which binding signal does the source give for “ATGCAAAGTTGCAGGGATTGATTGGCTGTTTCGTTTGCTACGGAGTCACCTAGTGCAG” here?
A: 21800 fluorescence intensity (a.u.)

Q: How did the binding signal turn out when “TTTAACTGAAAATCGATGGTTAGATTTGATAGAGCCATGTCGGAGTCACCTAGTGCAG” was run?
A: 26600 fluorescence intensity (a.u.)

Q: With “ATCGTGTTGATTGGAATTGTAAGTAGTCCTAGCTAGTGCTCGGAGTCACCTAGTGCAG” as the sequence, how does the binding signal read?
A: 49700 fluorescence intensity (a.u.)

Q: How did the binding signal turn out when “TCATCCAAATTACTTCATGACACATGAAACTAACAGAAGCCGGAGTCACCTAGTGCAG” was run?
A: 5750 fluorescence intensity (a.u.)

Q: With “AAATTGATCATTTGCGTAATCATCACTAAGTTCGTTTTGACGGAGTCACCTAGTGCAG” as the sequence, how does the binding signal read?
A: 8000 fluorescence intensity (a.u.)

Q: For “CACTCCAGATTGGTTGCTTGCTTGCTTTCTGCGTCGTCGTCGGAGTCACCTAGTGCAG”, which binding signal is on record?
A: 6670 fluorescence intensity (a.u.)

Q: “CACTGATATGATCCACCACAATTAATGTGCTCGAGACGACCGGAGTCACCTAGTGCAG” was tested. Which binding signal did it give?
A: 7230 fluorescence intensity (a.u.)

Q: For “CAGATTATGTGCCGTCAAATTGAGGAACTATATTGACCGGCGGAGTCACCTAGTGCAG”, which binding signal is on record?
A: 6930 fluorescence intensity (a.u.)

Q: How did the binding signal turn out when “TATTTAGACAGGTGTAAATAAATAAAAGAGACGTGTGGTCCGGAGTCACCTAGTGCAG” was run?
A: 11100 fluorescence intensity (a.u.)

Q: With “CAGGTGAATTATTAGTAAATTAACCCAGCATCTCATCTGGCGGAGTCACCTAGTGCAG” as the sequence, how does the binding signal read?
A: 8610 fluorescence intensity (a.u.)

Q: “CATTATAACATTTAATGATGAGCTGCACTCATTCTCATCGCGGAGTCACCTAGTGCAG” was tested. Which binding signal did it give?
A: 5250 fluorescence intensity (a.u.)

Q: “AGGCCTCTTAATTATTTCAAATGACATAGCTATTGACTGCCGGAGTCACCTAGTGCAG” was tested. Which binding signal did it give?
A: 15100 fluorescence intensity (a.u.)

Q: With “AGCCTAATTAATCTATAATTAGAGAATGTTTACTGTAGCACGGAGTCACCTAGTGCAG” as the sequence, how does the binding signal read?
A: 46200 fluorescence intensity (a.u.)

Q: Which binding signal does the source give for “ATAGGTGACAGACCGGTAAATTCTTCCCGGGTGCACACGACGGAGTCACCTAGTGCAG” here?
A: 3180 fluorescence intensity (a.u.)

Q: “TTGTTTATTTTATCAATTGACGTGTTCATGCAATCCACAACGGAGTCACCTAGTGCAG” was tested. Which binding signal did it give?
A: 6220 fluorescence intensity (a.u.)

Q: For “GAAGATTGGGCTTCGTGCACAAATTTGTTGCTGTCGTCGACGGAGTCACCTAGTGCAG”, which binding signal is on record?
A: 6800 fluorescence intensity (a.u.)

Q: How did the binding signal turn out when “AAGTTAAATTTAGACGTTGAAACCCTGTTAAACATGTCCTCGGAGTCACCTAGTGCAG” was run?
A: 9350 fluorescence intensity (a.u.)

Q: “ATATGAAATTTGGAAATTATGTTATATATGCATGAATTGTCGGAGTCACCTAGTGCAG” was tested. Which binding signal did it give?
A: 4160 fluorescence intensity (a.u.)

Q: How did the binding signal turn out when “ATTAATAGAAAACTTAAATTGACTGAATGTATGTAGTTTTCGGAGTCACCTAGTGCAG” was run?
A: 31800 fluorescence intensity (a.u.)

Q: How did the binding signal turn out when “TAACACATCATTATCAATCTCTAGGCTTACATGAGATTAGCGGAGTCACCTAGTGCAG” was run?
A: 8620 fluorescence intensity (a.u.)

Q: With “ATAGATATTTTATTTAAATTTATAATATTAAAATATGTCACGGAGTCACCTAGTGCAG” as the sequence, how does the binding signal read?
A: 5780 fluorescence intensity (a.u.)

Q: “ATGACTGATAATCTAAGACATGAAATAACTGAAATTCTGTCGGAGTCACCTAGTGCAG” was tested. Which binding signal did it give?
A: 36100 fluorescence intensity (a.u.)

Q: For “TGTAACTGGATGACAAGTTGAGGGACCTTCGGTGGACTTTCGGAGTCACCTAGTGCAG”, which binding signal is on record?
A: 4390 fluorescence intensity (a.u.)

Q: Which binding signal does the source give for “TCAATTTGTCAGCATTAATTAACTTCTTTTAACAAGAGAACGGAGTCACCTAGTGCAG” here?
A: 13700 fluorescence intensity (a.u.)

Q: With “CGAAACACTTGGCAATTAATCAATTAATCAGCAACTAGTACGGAGTCACCTAGTGCAG” as the sequence, how does the binding signal read?
A: 14900 fluorescence intensity (a.u.)

Q: Which binding signal does the source give for “CTCTTCATTTTCATGATTGCATGAATGTTATTTTCCCATACGGAGTCACCTAGTGCAG” here?
A: 7630 fluorescence intensity (a.u.)
